Data: the supplement of paper PMC10126150
Values marked as one replicate rest on one cluster of the flow cell; about a third of the high ones do not repeat.

Tested on: ATP
Experiment: switch fluorescence ratio, 500 uM ATP over buffer (Cy3 cluster intensity, sum of 5 cycles each) (fold (ratio)); higher = stronger signal-on switching upon ATP binding; sequences stand for … in TCGTCGGCAGCGTCAGATGTGTATAAGAGACAGTTTTTTTTTTTTTTTTTTTTTTTTT…TC
Details: aptamer strand: ATP DNA aptamer (quencher-CACCTGGGGGAGTATTGCGGAGGAAGG + anchor), 100 nM annealed; ATP concentration: 500 uM; one replicate
Method in brief: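 Five buffer/ATP imaging cycles were run on Cy3-labelled switching-strand clusters on a modified Illumina MiSeq flow-cell, with NaOH stripping and re-annealing between cycles. In each cycle, clusters annealed to 100 nM quencher-labelled ATP aptamer were imaged in selection buffer, then after 15 min with 500 uM ATP at 22 °C. Per cluster, the fluorescence ratio is summed target-cycle over summed buffer-cycle Cy3 intensity, averaged per switch-domain sequence. Only clusters within 100-1000 RFU were kept.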
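Further: ATP exposure 15 min at 22 °C before imaging.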

| Sequence | switch fluorescence ratio |
| --- | --- |
| CTGTCCACTG | 0.982 |
| CCTCGGGCCA | 1.73 |
| TTTCGAGGCA | 1.35 |
| CAAAGGGATG | 0.994 |
| CCCCGGAAAG | 1.19 |
| CGTTGTCAGC | 1.01 |
| TAAGATCGGA | 0.946 |
| AAGCTGCAGC | 0.974 |
| GGAGCTGCGA | 1.05 |
| TTTATACG | 1 |
| TACTCCTTCA | 1.38 |
| AAACTATGAC | 1.09 |
| GGATTCGGCG | 0.786 |
| AGAGGAGATG | 1.01 |
| CTCGTAGTCA | 1.03 |
| GTAAAGAAAT | 1.08 |
| AACCCGGATG | 1.08 |
| CCCGGGTAAT | 1.13 |
| CTAACGTATT | 1.11 |
| GCCTATATGG | 0.955 |
| GCACTGGCAG | 1.04 |
| GATCCATAG | 0.991 |
| CGAGGAGACG | 1.03 |
| CATCTTATTT | 0.969 |
| ACCATGAAAT | 0.963 |

| Sequence | switch fluorescence ratio |
| --- | --- |
| CCGAGCTCGA | 1.15 |
| AACTAATTCT | 0.95 |
| GGTTCTGGCT | 0.954 |
| CTCATAGTGT | 0.997 |
| ACAGCGGTCC | 1.05 |
| CCTGGGTTCT | 1 |
| ACCATGCATC | 1.08 |
| TGGGTGGAAA | 0.987 |
| GAAAGGAACT | 0.982 |
| AGACTCTGCA | 1.83 |
| TAGACTGGG | 0.96 |
| ATCGCGCGCT | 1.02 |
| AAGCTTCAAT | 1.01 |
| TGAGACGTTC | 1.03 |
| TCATTAGGGA | 0.99 |
| TCTTGGGATG | 0.98 |
| GGGCTTCAGC | 0.978 |
| AACAGCCTGC | 0.976 |
| GCGGTCTTT | 0.981 |
| CCTTTGGGAA | 0.98 |
| GCCTCATCCA | 1.03 |
| TTGCGGTGTT | 1.04 |
| GGTCTGAGAA | 0.997 |
| GGGGGTGTGC | 1.04 |
| GAACACGGCC | 1.13 |

| Sequence | switch fluorescence ratio |
| --- | --- |
| CGAAAGTCGT | 1.01 |
| CTATACTCTC | 1.18 |
| CTCTTCTCTC | 1.05 |
| GCTAAGTTGG | 1 |
| AAGTCCCGGT | 1 |
| AGTCTAACGA | 1 |
| TGTCTGCCGC | 1.08 |
| GTGGTAGATG | 0.96 |
| ATTTTCCGTT | 1.01 |
| GCAATTTTGG | 1.01 |
| ATAAGGGGCT | 1.06 |
| GAAGCTGATA | 1.06 |
| GTTGCCAAAA | 0.958 |
| CGTGAATCCC | 1 |
| ATTGGTGTGA | 0.992 |
| GGACGCGGAG | 0.986 |
| AGTCTATTCC | 1.08 |
| CCGAGAGTGT | 1.1 |
| AGGTGGACCT | 1.09 |
| CTTAAAAGC | 0.995 |
| TATCCAGCTG | 1 |
| CTTAGGTCGA | 0.966 |
| CGCATTTACC | 3.35 |
| AATACCGCGG | 0.953 |
| GCAGATTAGT | 0.944 |

| Sequence | switch fluorescence ratio |
| --- | --- |
| GGTGATCATG | 0.99 |
| CCAGTAGCT | 1.09 |
| TCTTGTAATG | 1.04 |
| TACATCCGTT | 1.04 |
| CTGGTGCGAC | 1.31 |
| GTCGGCCACG | 0.985 |
| CCTTCACTCC | 3.52 |
| AGAGAGAGGG | 1.02 |
| CGTTTTCCTT | 0.981 |
| ATGGGCGGAA | 1.02 |
| GAGGTGGCGG | 0.976 |
| TATCTAACT | 1.04 |
| CTTAAGTCGC | 1 |
| ACGCCTTACC | 1.66 |
| TCTTGTTGT | 0.976 |
| GCGGGAACAC | 1.03 |
| AAACTGTGTC | 0.948 |
| CGCGGCTCTG | 1.05 |
| GGTTTATGTG | 1 |
| CGATAAGAGA | 0.995 |
| GAGATCGTAG | 1.08 |
| CGGAGCCTGG | 1.05 |
| TTCGAGCATG | 1.13 |
| TCTGTAATCT | 1.08 |
| TCATGTGCTT | 0.979 |

| Sequence | switch fluorescence ratio |
| --- | --- |
| TCCCCGGTA | 1.49 |
| TGGGCAAATA | 1.11 |
| GGAAGCCTAG | 0.977 |
| AGTGTTCTAT | 0.955 |
| TTCTCCAAAT | 1.34 |
| GCTCTCCAAC | 1.16 |
| ATCCTAAGTA | 0.979 |
| TGCGTGGTGA | 1.01 |
| ACCTGATTAC | 1.17 |
| TCGCGTCGA | 1.06 |
| GGTAACGGAC | 1.33 |
| TCTGTCCAAA | 0.983 |
| CACTTATGGG | 0.963 |
| TCCCGGGCCT | 1.01 |
| AAGTCGGTGC | 1.07 |
| GTCTGACTGA | 1.01 |
| TATGTATCT | 1.01 |
| GAGTCACATT | 1.03 |
| TTTTGGTTCT | 0.956 |
| CAGACCAAGC | 1.25 |
| CAAAGCGAGC | 1.02 |
| TGAATCTTGC | 1.2 |
| TGAGCTTGTG | 1.01 |
| GTAAGCGGCA | 1.01 |
| GTTCAGACAG | 1 |

| Sequence | switch fluorescence ratio |
| --- | --- |
| ATATATAAG | 0.97 |
| TCTTGGAGGA | 1.03 |
| TAAGTGTAGG | 1.08 |
| ACAGAGGCTT | 1.03 |
| ACTACGGGA | 2.05 |
| TTGTCATACC | 1.05 |
| AGTATGATAA | 0.993 |
| TACTATTGGT | 1.01 |
| AATAGTACTA | 1 |
| GGAACCATTA | 0.974 |
| CAGCACCCCG | 1.16 |
| GTGACGACCT | 1.09 |
| CATACGAGTA | 1.02 |
| GCCTTAGAAA | 0.99 |
| TCTCTGCTGA | 1.81 |
| TCTTTTACAC | 1.02 |
| ACGTAAGCGG | 0.999 |
| CGTTCTGCGT | 0.991 |
| TAGGGGTGCT | 0.993 |
| CACGGTACGG | 1.19 |
| CGTGGTTGCT | 1.06 |
| TTTTGACGGG | 0.967 |
| ATACTCTAT | 1.06 |
| AAAGTCAAAT | 1.03 |
| CCCAGTGCAG | 1.09 |

| Sequence | switch fluorescence ratio |
| --- | --- |
| GTGGGGGGT | 0.99 |
| AACTTTCGTG | 0.975 |
| CTTTGGATGT | 0.994 |
| TACAACAAGC | 1.07 |
| CTGAAATCAA | 1.06 |
| TTTCACTGA | 1.04 |
| CCTACGGCTT | 2.2 |
| GCTCAATAAG | 1.03 |
| ACTGGGTGAT | 1.05 |
| GGCGGCGCCT | 0.975 |
| CACGGAGATA | 0.987 |
| CGAGGCCTTG | 0.995 |
| CGGCTCCTGG | 1.03 |
| ATGATGATCT | 1.01 |
| TGCTAGTAAT | 1.04 |
| AGGTCGCGTG | 1.04 |
| TCATTCGTTG | 1.01 |
| TATATCTGGG | 0.967 |
| TGAGAATGCG | 0.999 |
| GCGACAACAT | 1.12 |
| GGTAGGACCG | 0.894 |
| CGAGGTGCAG | 1.01 |
| CTGTTCTGGA | 1 |
| TATTTTGATG | 0.997 |
| AAATTCTTTG | 0.995 |

| Sequence | switch fluorescence ratio |
| --- | --- |
| ATACACCCGG | 1.27 |
| TATTCTGAAT | 0.949 |
| GGATCGAGAG | 0.986 |
| CCTTATTAAT | 1.07 |
| TAGTGGCCTT | 0.953 |
| TCAGGGAGGA | 0.978 |
| CAGGCGTCGA | 1.14 |
| CCGAGCTGTT | 1.19 |
| TGGTGGAGGA | 0.981 |
| AACATGACTC | 1.29 |
| GTGTTTTAAC | 0.955 |
| GTGCGAGCCG | 1.01 |
| TTACTATCCA | 1.04 |
| TGGGCGAAGT | 0.979 |
| CTACAGTTAC | 1.47 |
| CAGCCCATGT | 1.04 |
| TCCCATTACG | 1.28 |
| TTCCCAAGCG | 1.03 |
| AACTAGATGC | 1.03 |
| GATTTCGGCC | 1.14 |
| AAGAAAAAAA | 1.02 |
| CGTGCACTCG | 1 |
| AAGTCCGGG | 0.997 |
| TTCTGGCTCC | 1.78 |
| CGGTGACTC | 1.01 |
